From the supplement of paper PMC12632987
Whole data set: some 1,800 sequences, median “median log2 fold change of GCK-ALFA target abundance (FLAG IP / Myc IP barcode read proportion)” near 0.14, cut for the lowest 2% near -0.84. This is one part of the list.

T1: TRAF2, Q12933
T1 chain: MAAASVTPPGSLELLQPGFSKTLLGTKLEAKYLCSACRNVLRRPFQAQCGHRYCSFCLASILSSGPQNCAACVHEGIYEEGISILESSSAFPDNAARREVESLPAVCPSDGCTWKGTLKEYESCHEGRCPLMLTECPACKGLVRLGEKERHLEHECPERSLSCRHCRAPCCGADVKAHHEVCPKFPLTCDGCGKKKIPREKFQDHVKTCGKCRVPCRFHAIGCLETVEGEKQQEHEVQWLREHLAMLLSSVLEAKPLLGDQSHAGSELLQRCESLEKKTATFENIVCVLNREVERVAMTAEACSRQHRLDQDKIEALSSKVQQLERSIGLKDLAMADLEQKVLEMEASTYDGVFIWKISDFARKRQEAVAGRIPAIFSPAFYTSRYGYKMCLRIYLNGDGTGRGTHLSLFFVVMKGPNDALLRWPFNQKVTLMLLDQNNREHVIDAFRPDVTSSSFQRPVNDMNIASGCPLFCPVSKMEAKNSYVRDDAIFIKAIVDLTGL

B1: traf2_out_11_169_892 (protein)
chain: AEAEKNRKIIDKALELNDKAVEKLKEFALKLAKEAGLDVEEVKAIFEENKGKSLSAVAAALIEYFKSKGKEEEAEAVLKKHEELKEEINKEMTAFIKSLE
B2: traf2_out_11_155_691 (protein)
chain: SHDQELNNELVDKTTAIADKAKAEADKIAAAAAAAHPEHAERIAAAAAEAKKFSHRTYLGLMAALFRELGLEEEAARVEELLAKAQKEMNAVVKEIEAKK
B3: traf2_out_8_15_2553 (protein)
chain: SIEEAAQKDIERLRALSDGDEESLINTLMGTAKAELRLAKIYMEEGKKEEALNTLQAAEIYANAALELAKKINSPDLEKITKEVEKINKEIEELKKKIEA
B4: traf2_out_9_108_2593 (protein)
chain: MTKEEILEEKFKKVEELVKEFIEEVDLTEEQKEELEEAIKNAKELYEKGLKETAIILLAIDLARVASKVGEEAVKELLEKLKKIDERAYSAAERMVKLLK
B5: traf2_out_13_95_1041 (protein)
chain: SAELAEKIMAIADDMLDRALALLDAAAAEAADDPEARAVLEEARRLAETRGISEAIHLLREAAAAHPEHRELFERTIAELEAIRREAGREVAKLIKEEKE
B6: traf2_out_1_27_1022 (protein)
chain: SDEEFTRLIRETDRKIAEVDLEEQKKVVKEALKEAAKWGLGDARMLARTLVASQNDEERQEAIKEASLEAFKELGAPEEVIEELERVFNSIIERKKKVLA
B7: traf2_out_18_64_1956 (protein)
chain: SPVREEVDRLVDEMDARRRARLRLAERLTAKAAADPAYQPLLDLFHANVNSIGLAGAREMLALLDAGAPVEELEAVLRRHLGEGDELQRRLAEALEKLEA
B8: traf2_out_11_155_762 (protein)
chain: EEKLKIYREFNDKAMEIADELEKKIEETIKKLEEEDPAVAAEVRALLEKHRDASARSKALLAARKLKEAGYEELAKELLEKVKEAQEKMNKIANEANKKI
B9: traf2_out_18_117_1785 (protein)
chain: MKREEVIKRLEEIAEKVGRKASELGKLMLEKWEELSPEEKSEIMDILADLTEVRREALELIEKIKAGEIPLEEAEKRAREIEKRAEEALKKAEEKIKEIE
B10: traf2_out_20_3_2117 (protein)
chain: KELEEELERELERALRLLEEAAKLANPEDAKVLRELAKRLEASRELSPVDRLVVVSEIRREVRALRQRALAAGDEELAEVLERAAEALNRAANLLMKIIE
B11: traf2_out_13_95_1087 (protein)
chain: SAETNAKINEIADKMMEKIEAILDKLSEEVADDPELKAEVEAAKELAITRGVNEAIHKLRELSKAHPEYKEKLDKAIDEIEKVKREASKEISKLLKEEKE
B12: traf2_out_11_169_799 (protein)
chain: KEAEKNRKINDKALELNDKAKEELLKHALELAKKEGLDTEEVKAIYEKNKNRSLSAVASALIDYFKSQGKEEAAEAVLKKYEELKEKINKEMTAFIKELE
B13: traf2_out_20_38_2036 (protein)
chain: SMEEEEEEKLEEIIRVANEAYDAYEAEIAALKAAGKTVEEIAAIAKERVRELLSKVGLEEEAEILVEDIDLALSSPEAERLIARILARAEAKVKQKELNE
B14: traf2_out_6_156_2450 (protein)
chain: MIEEIFEKAVKEIEELIKKLAAAPESKKIAYINKIAGTFYKALQELRESGASLEEIEEFVERLLKKAEELANEAGLDEDTKNLLLSTLSAVGEVAIANAK
B15: traf2_out_18_147_1813 (protein)
chain: SWREAIDKIADLSEKIGKLMDEIAKLTGKEEETQKLRDILTSTSVSEEEKKEAVEKAKEKYKKEGKEEAVKKLEEALKLSKERKKAAKEANKLINEEEAK
B16: traf2_out_17_178_1732 (protein)
chain: SKEEILKEISEYADKMLDVNKEAMDKLKELAEKEGILTPELKKRLDEVASTSNLYALEEVANEIIKLSKNKEEVQKLLDETVKKLTELRKKIQEAVEKLE
B17: traf2_out_13_95_1085 (protein)
chain: SAETNAKIMAIADKAQDQIDAILQALAEQVAGDPELAAAVQQALQLAQTQGVNEALHLLEQLAAANPEHKELLDAAIAQIKAVKAQASKEISALLKEEEA
B18: traf2_out_15_180_1329 (protein)
chain: MTEEELEKRIELASEAADKVQDHLDALLAAHPELSEEEKALLRAAARAILTLLINGEYEEAKKHLEATKAKVNPLTAAVLEEIYKFAKEVVEKAKEELKK
B19: traf2_out_1_27_1014 (protein)
chain: SDEELTKLIKETDKKIAEVSLEEAKKVVKEALKEAAKLGPEDAMVLANTLIASQLDEERLKAIAEAAVEAFKELGFPEEDIERLKRIAESVLKLNKKVLA

Target: T1, TRAF2, Q12933
Test: median log2 fold change of GCK-ALFA target abundance (FLAG IP / Myc IP barcode read proportion) (log2 ratio); each designed protein is fused to an ALFA-tag nanobody in HEK293 cells to bring the named protein to FLAG-tagged glucokinase (GCK); Myc marks an untargeted standard; higher = target protein stabilised (more abundant)
Conditions: target protein: 3xFLAG-MCP-GCK-ALFA reporter; HEK293 landing pad (RPLP)
Method in brief: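 An ALFA-nanobody-fused binder library was recombined into HEK293 landing-pad cells and induced with 2 μg mL^−1 doxycycline. Cells were transfected with a plasmid expressing a FLAG-tagged target and a Myc-tagged standard. After 48 h, lysates underwent anti-FLAG and anti-Myc immunoprecipitation, and circular RNA barcodes were reverse transcribed, amplified and sequenced. Target abundance is the per-binder median log2 ratio of FLAG to Myc barcode read proportions. Barcodes needed ≥10^−7 proportion in both replicates, binders ≥3 barcodes per replicate, and a 10^−6 pseudocount was added; the two replicates were pooled.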

Row | Binder | median log2 fold change
1 | B1 | 0.302
2 | B2 | 0.416
3 | B3 | 0.193
4 | B4 | -0.0117
5 | B5 | -0.5
6 | B6 | 0.214
7 | B7 | 0.121
8 | B8 | -0.0656
9 | B9 | -0.116
10 | B10 | 0.0163
11 | B11 | 0.249
12 | B12 | 0.166
13 | B13 | -1.27
14 | B14 | 0.00905
15 | B15 | 0.327
16 | B16 | 0.129
17 | B17 | 0.21
18 | B18 | 0.29
19 | B19 | 0.337
